Data taken from the supplement of paper PMC3334620.
The full ranking holds about 33,000 sequences; the median of “E-score (-0.5 to 0.5)” is about -0.041, and the highest 2% start at about 0.37. The list shows a part of the results.

target: T1, Ecm22 (UniProt Q05958); assay: PBM E-score (8-mer binding enrichment) (E-score (-0.5 to 0.5)); higher = stronger / more preferred TF binding; most listed sequences are background and not binding sites; details: protein concentration: 200 nM; construct: GST-full length
T1 sequence: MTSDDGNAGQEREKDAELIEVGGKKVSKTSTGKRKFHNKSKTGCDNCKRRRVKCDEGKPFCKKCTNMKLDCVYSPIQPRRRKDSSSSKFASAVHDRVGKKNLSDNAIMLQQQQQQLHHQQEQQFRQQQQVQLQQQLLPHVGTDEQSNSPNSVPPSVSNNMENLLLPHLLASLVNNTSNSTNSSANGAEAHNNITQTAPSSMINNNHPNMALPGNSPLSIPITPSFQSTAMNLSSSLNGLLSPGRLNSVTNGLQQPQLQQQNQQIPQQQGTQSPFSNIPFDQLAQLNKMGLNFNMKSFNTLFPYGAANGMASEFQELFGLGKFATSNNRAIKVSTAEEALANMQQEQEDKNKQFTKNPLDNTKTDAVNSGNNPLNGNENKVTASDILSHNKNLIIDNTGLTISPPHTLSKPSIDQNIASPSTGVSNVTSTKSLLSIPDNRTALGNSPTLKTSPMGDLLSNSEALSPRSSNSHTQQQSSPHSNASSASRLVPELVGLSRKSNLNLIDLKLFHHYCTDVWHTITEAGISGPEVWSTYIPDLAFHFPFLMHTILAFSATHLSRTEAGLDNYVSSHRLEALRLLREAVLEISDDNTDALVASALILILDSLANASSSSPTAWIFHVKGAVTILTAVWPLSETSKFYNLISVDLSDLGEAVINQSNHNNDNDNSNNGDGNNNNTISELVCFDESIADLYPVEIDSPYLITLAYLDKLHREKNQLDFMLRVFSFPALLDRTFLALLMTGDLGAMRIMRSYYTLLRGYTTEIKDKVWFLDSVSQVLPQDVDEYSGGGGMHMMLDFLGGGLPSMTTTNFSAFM
Procedure, shortened: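 For each ungapped eight-base word taken together with its reverse complement, the Universal PBM Analysis Suite assigned an E-score. Binding data came from GST-tagged yeast transcription factors, applied at about 100-200 nM, on universal all-10-mer Agilent arrays made double-stranded by primer extension. Fluorescent anti-GST marked bound protein, and scans were normalised with masliner.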

| Sequence | PBM E-score |
| --- | --- |
| AGTCAAAA | -0.159 |
| ACACTTCA | -0.121 |
| CCAGCATA | -0.219 |
| ATCGGTCC | 0.196 |
| CCTGATAG | -0.217 |
| GTCTCGGA | 0.242 |
| AGGCTTGC | -0.219 |
| AGAGCTCG | 0.148 |
| CCATGACC | -0.0476 |
| AGAGCGTG | 0.0343 |
| AGCCGCGC | -0.115 |
| ATAAGTAG | -0.139 |
| AGTGGGAC | -0.134 |
| ACACAGGT | -0.183 |
| CACAAGGG | -0.359 |
| AGGTGGCC | -0.127 |
| CTTATCTA | -0.0604 |
| ATGCGAAA | 0.195 |
| AGATGCCA | -0.145 |
| GGCCCGCA | -0.172 |
| CCTTCCAG | -0.242 |
| AATGAAGA | 0.0084 |
| AATTACGA | 0.361 |
| CCTTGACG | -0.25 |
| GGTCTCCA | -0.142 |

| Sequence | PBM E-score |
| --- | --- |
| GAGTCTTA | -0.0549 |
| ACTCGTCG | 0.269 |
| TATTTTCA | 0.0905 |
| AGCTACCT | -0.141 |
| TCTGGGAA | 0.00899 |
| ATTGCGAG | 0.197 |
| AATCGACA | 0.159 |
| ATGTCATA | 0.116 |
| CACACCAA | -0.0416 |
| GCCACCAA | -0.152 |
| GTTCTAGA | 0.0332 |
| TCGTCGAA | 0.0505 |
| AGCTTTTG | -0.0723 |
| CTGCTCCA | -0.285 |
| AGTACAAC | 0.0262 |
| CACTAGGG | -0.339 |
| GGACACAC | -0.0586 |
| CGAGCGCG | 0.246 |
| ACTCAGGG | -0.1 |
| CCTAGTTC | -0.0647 |
| AAGTATAG | -0.046 |
| CAATGCGG | -0.081 |
| ATTATGAG | 0.0384 |
| ATCCACAG | -0.194 |
| AACGAGGC | 0.434 |

| Sequence | PBM E-score |
| --- | --- |
| AAAGTTGT | 0.116 |
| AGTCTTCA | -0.301 |
| AGTAGGGG | -0.212 |
| GGCTGTGA | -0.188 |
| GAGCAACC | 0.0217 |
| ATTGAATA | 0.0783 |
| ATTAGACG | -0.0592 |
| CGAACGGC | 0.284 |
| GCATGACA | -0.218 |
| ATAGACAT | -0.0449 |
| CTTCGGCC | -0.151 |
| GGAGACCC | -0.153 |
| GATTGCCA | 0.00775 |
| AACCAAAT | 0.075 |
| CTGCGTTA | -0.0491 |
| ATTTACTC | -0.0808 |
| TAAACCAA | -0.144 |
| AGCGTAAT | -0.104 |
| CGGCTGCC | -0.0345 |
| ACGGGCCG | 0.239 |
| AGGATGTG | -0.185 |
| GATTTAGC | 0.198 |
| TCCAGTCA | -0.288 |
| CGGTATCA | 0.0726 |
| CCAACGGG | -0.0935 |

| Sequence | PBM E-score |
| --- | --- |
| GACGTCCC | -0.0236 |
| AGAACATG | 0.094 |
| AGGTCGGA | -0.0331 |
| TGCTTAAA | 0.0143 |
| GCCCTTCA | -0.222 |
| CATGTATC | -0.035 |
| CCTACAGG | -0.161 |
| CCAGCCCG | -0.142 |
| TCTTTCCA | -0.197 |
| AAAGGTAA | 0.0533 |
| ATAACAAG | -0.0507 |
| CGATGGAC | 0.148 |
| AATTCAAC | 0.0992 |
| CTCCGGAA | 0.0231 |
| ACTATCCG | 0.231 |
| GACTACGC | -0.119 |
| ATATTTGG | -0.0645 |
| CTCACTGA | -0.255 |
| GGGCAGAC | -0.156 |
| CACCGGCC | -0.118 |
| GGCAGTGA | -0.214 |
| AAAAGTTA | -0.0116 |
| GCGTACGC | 0.178 |
| ACTTTCGA | 0.0118 |
| AATCGGCA | -0.0217 |

| Sequence | PBM E-score |
| --- | --- |
| CAAAAGAG | -0.117 |
| GGCCGAAA | -0.0178 |
| CTCCTTGC | -0.0678 |
| AACGAAGA | 0.421 |
| CCTATGGC | -0.246 |
| AAACGGTC | 0.293 |
| AGAATGGG | -0.127 |
| GCCGCGCA | -0.18 |
| ACTCAGGA | -0.109 |
| GCGGTAAC | 0.0639 |
| AAGATCGG | -0.0633 |
| AAAACGTG | -0.0161 |
| ATTACGGA | 0.147 |
| GGAAAAGA | -0.11 |
| AGGATCTA | -0.147 |
| GGCCGCAC | -0.221 |
| TCGTAACA | 0.425 |
| GATGTAAA | 0.0502 |
| AATCCCGT | 0.192 |
| TATGATCA | 0.177 |
| GATCCGAA | 0.246 |
| AGAGGTAA | 0.107 |
| AGGGAAAC | 0.00272 |
| ATGGAACA | -0.322 |
| CCCTTAGC | -0.246 |

| Sequence | PBM E-score |
| --- | --- |
| CACTAAAA | 0.0698 |
| CGTTAAAC | 0.392 |
| AACGTAAA | 0.283 |
| ATAGGTCC | -0.0948 |
| ATGATGTG | -0.256 |
| CGTCAGAC | -0.0294 |
| AGATTTTC | -0.0479 |
| CACGGCAG | 0.0104 |
| AACGGCGC | 0.219 |
| GTCTTTTA | 0.0597 |
| CGTCCGAA | 0.144 |
| ACGCGTCT | -0.0361 |
| GACGTCAA | 0.0646 |
| GCAAGTGC | -0.203 |
| AGCCCCTG | -0.155 |
| ATAGAAGG | -0.116 |
| AACCCTAA | -0.101 |
| AGTGCCCG | -0.103 |
| CTGCGCTC | -0.0626 |
| AAAGCCGT | 0.00607 |
| CTGAATGA | -0.02 |
| ATCTTTTA | 0.0457 |
| GCACGGGC | -0.263 |
| CGTGGACA | -0.0844 |
| AACCGTTG | -0.0721 |

| Sequence | PBM E-score |
| --- | --- |
| CGCATGCG | 0.0792 |
| ACGGTCGA | 0.147 |
| ACAGGGCC | -0.0883 |
| CTAGGAAC | 0.101 |
| CTACAGCC | -0.292 |
| AAAACTGC | -0.0403 |
| ACTCTAGA | -0.026 |
| ATCTTGGA | -0.0471 |
| ACACTCAT | -0.235 |
| ACGAAGTC | 0.279 |
| GCGGCCGC | 0.0179 |
| CATGCCCA | -0.21 |
| ACGAAAGG | 0.33 |
| CCCTAATC | -0.0893 |
| ATAAACGA | 0.484 |
| AGCGTGTG | -0.0603 |
| CAACGACG | 0.351 |
| GCATGGAC | -0.211 |
| CTGAATCA | -0.0966 |
| CAGACCGG | -0.125 |
| CGAGACAC | 0.115 |
| GTTGTTTA | -0.0563 |
